Among the test systems are WM115; WM1716; WM1745; WM3526; WM3619; WM451Lu.
What all share (test): cell count relative to DMSO control; melanoma cells; higher = more viable cells
Holding throughout (conditions): library dose: low library concentration; 72 h

Some of the results follow. Many values rest on one well or one pass, so single values are uncertain.
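Further: cell number obtained by counting DAPI-stained nuclei in high-throughput microscope images with image analysis software, screen run in 1,536-well plates.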

With `CC(C)C[C@H](NC(=O)[C@H](Cc1ccccc1)NC(=O)c1cnccn1)B(O)O` [Bortezomib] + C=C(c1ccc(C(=O)O)cc1)c1cc2c(cc1C)C(C)(C)CCC2(C)C [Bexarotene] (first compound 0.001 µM, partner dose 2 µM), the cell count with WM115 worked out at 94.3%; in the assay on WM1716 it was 21.3%; with WM1745, 55.5%; in the assay with WM3526 it was 69.1%; in the assay on WM3619, 11.5%; with WM451Lu, 82.9%.
Consider `Cc1cc(Nc2cc(N3CCN(C)CC3)nc(/C=C/c3ccccc3)n2)n[nH]1` + O=c1cc(-c2cccc3c2Sc2ccccc2S3)oc(N2CCOCC2)c1 [KU55933] (first compound 0.04 µM, partner dose 1 µM), for which the cell count came out at 91.2% with WM115; 106% with WM1716; 98.6% in the assay on WM1745; 101% with WM3526; 102% in the assay on WM3619; 100% in the assay with WM451Lu.
On to `COc1ccc(C2=N[C@@H](c3ccc(Cl)cc3)[C@@H](c3ccc(Cl)cc3)N2C(=O)N2CCNC(=O)C2)c(OC(C)C)c1` [Nutlin-3] + CCCCCCCCCCCC1=C(O)C(=O)C=C(O)C1=O [Embelin] (first compound 0.1 µM, partner dose 1.2 µM), for which the cell count with WM115 was 100%; with WM1716, 78.4%; in the assay on WM1745, 106%; with WM3526 it was 106%; with WM3619 it was 124%; in the assay on WM451Lu it was 125%.
For `Cn1c(=O)n(-c2ccc(C(C)(C)C#N)cc2)c2c3cc(-c4cnc5ccccc5c4)ccc3ncc21` + Oc1cc(-c2nc(-c3ccccc3)[nH]c2-c2ccncc2)ccc1Cl [L779450] (first compound 0.004 µM, partner dose 0.2 µM), the cell count in the assay on WM115 was 62.4%; with WM1716, 80.9%; in the assay with WM1745, 83%; in the assay with WM3526 it was 82.2%; in the assay on WM3619 it was 80.1%; in the assay on WM451Lu it was 123%.
For the compound `COc1ccc(C2=N[C@@H](c3ccc(Cl)cc3)[C@@H](c3ccc(Cl)cc3)N2C(=O)N2CCNC(=O)C2)c(OC(C)C)c1` [Nutlin-3] + CNC(=O)c1cc(Oc2ccc(NC(=O)Nc3ccc(Cl)c(C(F)(F)F)c3)cc2)ccn1 [sorafenib] (first compound 0.1 µM, partner dose 0.4 µM), the cell count in the assay on WM115 stood at 93.2%; with WM1716 it was 118%; in the assay on WM1745 it was 89.2%; in the assay with WM3526 it was 98.1%; in the assay on WM3619 it was 114%; with WM451Lu it was 101%.
As for `CC(C)C[C@H](NC(=O)[C@H](Cc1ccccc1)NC(=O)c1cnccn1)B(O)O` [Bortezomib] + CS(=O)(=O)CCNCc1ccc(-c2ccc3ncnc(Nc4ccc(OCc5cccc(F)c5)c(Cl)c4)c3c2)o1 [lapatinib] (first compound 0.001 µM, partner dose 0.8 µM), the cell count in the assay with WM115 was 92.5%; in the assay on WM1716 it was 41%; in the assay with WM1745 it was 59.4%; with WM3526, 90.5%; with WM3619, 16.8%; in the assay with WM451Lu, 96%.
Consider `Cc1cc(Nc2cc(N3CCN(C)CC3)nc(/C=C/c3ccccc3)n2)n[nH]1` + Nc1ccn([C@@H]2O[C@H](CO)[C@@H](O)C2(F)F)c(=O)n1 [gemcitabine] (first compound 0.04 µM, partner dose 0.0004 µM), for which the cell count turned out to be 109% with WM115; 113% with WM1716; 86.8% with WM1745; 100% in the assay with WM3526; 72.6% in the assay with WM3619; 109% in the assay with WM451Lu.
Take `COc1ccc(C2=N[C@@H](c3ccc(Cl)cc3)[C@@H](c3ccc(Cl)cc3)N2C(=O)N2CCNC(=O)C2)c(OC(C)C)c1` [Nutlin-3] + Cc1ccc(NC(=O)c2cccc(N(C)C)c2)cc1NC(=O)c1ccc(O)cc1 [ZM336372] (first compound 0.1 µM, partner dose 2 µM): the cell count in the assay on WM115 is 91.4%; with WM1716 it was 96.3%; in the assay on WM1745 it was 90.5%; with WM3526, 76.4%; in the assay with WM3619, 91.2%; in the assay with WM451Lu, 90.5%.
Regarding `Cc1cn(-c2cc(NC(=O)c3ccc(C)c(Nc4nccc(-c5cccnc5)n4)c3)cc(C(F)(F)F)c2)cn1` [nilotinib] + NCC(=O)Nc1ccc(-n2nc(C(F)(F)F)cc2-c2ccc3c(ccc4ccccc43)c2)cc1 [OSU03012] (first compound 0.2 µM, partner dose 1 µM), the cell count with WM115 amounted to 84.5%; in the assay on WM1716, 97.5%; in the assay on WM1745, 71.8%; in the assay on WM3526, 60.9%; with WM3619, 118%; in the assay on WM451Lu, 59.1%.
As to `CC(C)C[C@H](NC(=O)[C@H](Cc1ccccc1)NC(=O)c1cnccn1)B(O)O` [Bortezomib] + N#Cc1c(O)c2c(-c3ccc(-c4ccccc4O)cc3)csc2[nH]c1=O [A769662] (first compound 0.001 µM, partner dose 2 µM), the cell count in the assay with WM115 worked out at 103%; with WM1716, 25%; in the assay on WM1745, 56.6%; in the assay with WM3526, 86.8%; in the assay with WM3619 it was 30.2%; in the assay on WM451Lu, 84.3%.
In the case of `CC(C)C[C@H](NC(=O)[C@H](Cc1ccccc1)NC(=O)c1cnccn1)B(O)O` [Bortezomib] + NCC(=O)Nc1ccc(-n2nc(C(F)(F)F)cc2-c2ccc3c(ccc4ccccc43)c2)cc1 [OSU03012] (first compound 0.001 µM, partner dose 1 µM), the cell count in the assay with WM115 amounted to 90.8%; with WM1716, 44.7%; in the assay on WM1745 it was 47.5%; in the assay with WM3526, 46.2%; in the assay with WM3619, 16.2%; in the assay on WM451Lu, 59.3%.
Turning to `Cc1cc(Nc2cc(N3CCN(C)CC3)nc(/C=C/c3ccccc3)n2)n[nH]1` + CC(C)C[C@H](NC(=O)[C@H](Cc1ccccc1)NC(=O)c1cnccn1)B(O)O [Bortezomib] (first compound 0.04 µM, partner dose 0.001 µM), the cell count was 96.9% in the assay with WM115; 69.9% in the assay on WM1716; 79.9% in the assay with WM1745; 99.7% in the assay on WM3526; 54.6% in the assay with WM3619; 91.1% in the assay on WM451Lu.
As for `Cc1cc(Nc2cc(N3CCN(C)CC3)nc(/C=C/c3ccccc3)n2)n[nH]1` + COc1ccc(COc2ccc(Cc3cnc(N)nc3N)cc2OC)cc1 [GW2580] (first compound 0.04 µM, partner dose 1 µM), the cell count in the assay on WM115 was 96.5%; in the assay on WM1716, 88.4%; in the assay with WM1745, 85.7%; in the assay with WM3526 it was 103%; with WM3619, 94.1%; in the assay on WM451Lu, 98%.
With `Cc1cn(-c2cc(NC(=O)c3ccc(C)c(Nc4nccc(-c5cccnc5)n4)c3)cc(C(F)(F)F)c2)cn1` [nilotinib] + CCCCCCCCCCCC1=C(O)C(=O)C=C(O)C1=O [Embelin] (first compound 0.2 µM, partner dose 1.2 µM), the cell count is 101% in the assay with WM115; 110% in the assay on WM1716; 94.9% in the assay with WM1745; 96.8% in the assay with WM3526; 107% in the assay with WM3619; 93.8% with WM451Lu.
Regarding `Cn1c(=O)n(-c2ccc(C(C)(C)C#N)cc2)c2c3cc(-c4cnc5ccccc5c4)ccc3ncc21` + C[C@]1(c2nc3c(C(N)=O)cccc3[nH]2)CCCN1 [Veliparib] (first compound 0.004 µM, partner dose 1.4 µM), the cell count in the assay with WM115 is 81.8%; in the assay with WM1716, 90.1%; in the assay on WM1745, 98.8%; with WM3526, 96%; in the assay on WM3619 it was 97.9%; in the assay on WM451Lu, 83.8%.
On to `Cc1cn(-c2cc(NC(=O)c3ccc(C)c(Nc4nccc(-c5cccnc5)n4)c3)cc(C(F)(F)F)c2)cn1` [nilotinib] + c1cc(-c2cnn3cc(-c4ccc(OCCN5CCCCC5)cc4)cnc23)ccn1 [Dorsomorphin] (first compound 0.2 µM, partner dose 0.4 µM), for which the cell count in the assay on WM1716 came out at 113%; in the assay on WM1745, 77.3%; in the assay with WM3526, 103%; with WM3619, 116%; in the assay on WM451Lu, 102%.
Regarding `Cc1cn(-c2cc(NC(=O)c3ccc(C)c(Nc4nccc(-c5cccnc5)n4)c3)cc(C(F)(F)F)c2)cn1` [nilotinib] + O=C(Nc1ccccc1)c1cc([N+](=O)[O-])ccc1Cl [GW9662] (first compound 0.2 µM, partner dose 2 µM), the cell count in the assay with WM115 was 97%; with WM1716, 101%; in the assay on WM1745, 75.8%; with WM3526, 101%; in the assay on WM3619 it was 99.5%; in the assay with WM451Lu, 114%.
On to `Cn1c(=O)n(-c2ccc(C(C)(C)C#N)cc2)c2c3cc(-c4cnc5ccccc5c4)ccc3ncc21` + CCN(CC)CCCCNc1ncc2cc(-c3cc(OC)cc(OC)c3)c(NC(=O)NC(C)(C)C)nc2n1 [PD173074] (first compound 0.004 µM, partner dose 0.1 µM), for which the cell count is 92.3% with WM115; 83.6% in the assay with WM1716; 106% in the assay with WM1745; 90.5% in the assay with WM3526; 90.2% in the assay on WM3619; 101% in the assay with WM451Lu.
For `Cn1c(=O)n(-c2ccc(C(C)(C)C#N)cc2)c2c3cc(-c4cnc5ccccc5c4)ccc3ncc21` + O=C(Nc1cccc(Cl)c1)Nc1ncc(CCNc2ncnc3ccsc23)s1 [SNS314] (first compound 0.004 µM, partner dose 0.0008 µM), the cell count stood at 61.9% in the assay on WM115; 99.2% with WM1716; 86.1% in the assay on WM1745; 78.3% in the assay with WM3526; 90.5% in the assay on WM3619; 84.2% with WM451Lu.
Consider `Cn1c(=O)n(-c2ccc(C(C)(C)C#N)cc2)c2c3cc(-c4cnc5ccccc5c4)ccc3ncc21` + Cc1cc([N+](=O)[O-])ccc1NS(=O)(=O)c1cc(Cl)ccc1Cl [FH535] (first compound 0.004 µM, partner dose 1 µM), for which the cell count in the assay with WM115 came to 78.3%; in the assay on WM1716, 77.8%; in the assay on WM1745, 104%; with WM3526, 77.6%; in the assay with WM3619, 80.9%; in the assay on WM451Lu, 98%.
For `Cc1cn(-c2cc(NC(=O)c3ccc(C)c(Nc4nccc(-c5cccnc5)n4)c3)cc(C(F)(F)F)c2)cn1` [nilotinib] + CCCS(=O)(=O)Nc1ccc(F)c(C(=O)c2c[nH]c3ncc(Cl)cc23)c1F [PLX4720] (first compound 0.2 µM, partner dose 0.08 µM), the cell count is 99% with WM115; 103% with WM1716; 79.6% in the assay on WM1745; 80.7% in the assay with WM3619; 93.8% in the assay with WM451Lu.
Turning to `CC(C)C[C@H](NC(=O)[C@H](Cc1ccccc1)NC(=O)c1cnccn1)B(O)O` [Bortezomib] + CN1CCN(c2ccc3nc(-c4c(N)c5c(F)cccc5[nH]c4=O)[nH]c3c2)CC1 [Dovitinib] (first compound 0.001 µM, partner dose 0.1 µM), the cell count in the assay with WM115 amounted to 90.1%; with WM1716 it was 19.5%; in the assay with WM1745, 59.9%; in the assay with WM3526, 64.9%; with WM3619, 10.3%; in the assay on WM451Lu, 56.2%.
As to `CC(C)C[C@H](NC(=O)[C@H](Cc1ccccc1)NC(=O)c1cnccn1)B(O)O` [Bortezomib] + Clc1ccc(Nc2nnc(Cc3ccncc3)c3ccccc23)cc1 [vatalanib] (first compound 0.001 µM, partner dose 2 µM), the cell count with WM115 was found to be 103%; in the assay on WM1716, 22.3%; with WM1745 it was 51.2%; in the assay on WM3526, 96.4%; in the assay on WM3619 it was 10.6%; in the assay on WM451Lu, 91.9%.
Regarding `COc1ccc(C2=N[C@@H](c3ccc(Cl)cc3)[C@@H](c3ccc(Cl)cc3)N2C(=O)N2CCNC(=O)C2)c(OC(C)C)c1` [Nutlin-3] + CC(=O)c1c(C)c2cnc(Nc3ccc(N4CCNCC4)cn3)nc2n(C2CCCC2)c1=O [palbociclib] (first compound 0.1 µM, partner dose 0.04 µM), the cell count came to 85.6% in the assay with WM115; 75.6% with WM1716; 71.6% in the assay with WM1745; 53.8% with WM3526; 71.3% in the assay with WM3619; 72.9% in the assay with WM451Lu.
For the compound `Cn1c(=O)n(-c2ccc(C(C)(C)C#N)cc2)c2c3cc(-c4cnc5ccccc5c4)ccc3ncc21` + Cn1c(Nc2ccc(C(F)(F)F)cc2)nc2cc(Oc3ccnc(-c4ncc(C(F)(F)F)[nH]4)c3)ccc21 [CHIR265] (first compound 0.004 µM, partner dose 0.08 µM), the cell count with WM115 came to 46.2%; in the assay on WM1716, 65.5%; in the assay with WM1745 it was 68.9%; in the assay on WM3526 it was 42%; in the assay with WM3619, 43.7%; in the assay with WM451Lu it was 93.7%.
